Data: the RNAGym collection of RNA variant scans (doi:10.7554/elife.90254)
Read counts are not given, so values of variants with three or more changes are uncertain.

B1: LINE1-mini (parent)
chain: GGCAGAGCUCAACACAGCGUGGCAAAGUGGCUGUGGCUAGACUGCC

Variants of: B1
Assay: self-cleavage, relative activity (ratio to wild type); higher = more cleavage; in vitro, sequencing; the parent is a self-cleaving ribozyme

Row | Variant | self-cleavage
1 | GGCAGAGCUCGACACAGCCUGGCAAUGUGCCUGUGGCUAAACUGCC [A11G G19C A26U G30C G40A] | 0.01
2 | GGCAGAGCUCGACACAGUGUGGCACAGUGGCUGUGGCUAGACCGCC [A11G C18U A25C U43C] | 0
3 | GGCAGAGCUCGACACAGCGUGGGAAAGUGGCUGUGGCCAGACUGCC [A11G C23G U38C] | 0.02
4 | GGCAGAGCUCGACACAGCUUGGCAAAGUGGCUCUGGCUAGACUGCC [A11G G19U G33C] | 0.02
5 | GGCAGAGCUCGACACAGCGUGGCAAAGUGGUUGUGUCUAGACUGCC [A11G C31U G36U] | 0.03
6 | GGCAGAGCUCGACACAGCUUGGCAAAGUGGCUGUGGCUAGAUUGCA [A11G G19U C42U C46A] | 0
7 | GGCAGAGCUCGACACAGCUUGGCAAAGUGGCUUUGGCUCGACUGCC [A11G G19U G33U A39C] | 0.01
8 | GGCAGAGCUCGACACAGAGUGACAAAGUGGCUGUGGCUAGACUGCC [A11G C18A G22A] | 0.02
9 | GGCAGAGCUCGACACAACGUGGCAAAGUGGCUGUGGCUAGACUGUC [A11G G17A C45U] | 0.03
10 | GGCAGAGCUCGAAACAGCGUGGCAAAGUGGCUGUAGCCAGACUGCU [A11G C13A G35A U38C C46U] | 0
11 | GGCAGAGCUCGACACAGCGUGGCAAAGUGGUUGUCGCUAGACUGCC [A11G C31U G35C] | 0.03
12 | GGCAGAGCUCGACAGAGCGUGGCAAAGUGGCUGUGGCUACACUGCC [A11G C15G G40C] | 0.01
13 | GGCAGAGCUCGACACAGUAUGGUAGAGUGGCUGUGGCUAGACUGCC [A11G C18U G19A C23U A25G] | 0
14 | GGCAGAGCUCGACACAGCGUGGCAAAGUGGGUGUGGCUAGACUCCC [A11G C31G G44C] | 0
15 | GGCAGAGCUCGACACAGCUUGUAAAAUUGGCUGUAGCUACACUGCC [A11G G19U G22U C23A G27U G35A G40C] | 0.01
16 | GGCAGAGCUCGACACAGCGUGGCAAAUUGGCAGUGGCUAGACUGCC [A11G G27U U32A] | 0.01
17 | GGCAGAGCUCGACACAGUGAGGCAAAGUGGCUGUGGCUAGACUGCC [A11G C18U U20A] | 0.02
18 | GGCAGAGCUCGACACAGCGUGGCAAAAUAGCUGUGGCUAGACUGCC [A11G G27A G29A] | 0.01
19 | GGCAGAGCUCGACACAGCGUGCCAAAGUGGCUGUGGCUAGAUUGCC [A11G G22C C42U] | 0.03

Row | Variant | self-cleavage
20 | GGCAGAGCUCGACACAGCGUGGGAAAGUGGCUGUGGAUAGACUGCC [A11G C23G C37A] | 0.01
21 | GGCAGAGCUCGACACAGCGUGGAACAGUGGCUGUGGCUAGACUGGC [A11G C23A A25C C45G] | 0.05
22 | GGCAGAGCUCGACACAGAUUGGCAAAGUGGCUGUGGCUAGACUGCC [A11G C18A G19U] | 0.06
23 | GGCAGAGCUCGACACAGCGUGGCAAAGUGAAUGUGGCUAGACUGCC [A11G G30A C31A] | 0.02
24 | GGCAGAGCUCGAGACAGCGUGGCAAUGUGGCUGUGGCUAGACUGCC [A11G C13G A26U] | 0.02
25 | GGCAGAGCUCGAGACAGCGUGGCAACGUGGCUGUGGCUAGACUGCC [A11G C13G A26C] | 0.01
26 | GGCAGAGCUCGACACAGCGUUGCAAAGUGGCCGUGGCUAGACUACC [A11G G21U U32C G44A] | 0.02
27 | GGCAGAGCUCGAGACAGCGUGGUAAAGAGGCUGUGGCUAGACUGCC [A11G C13G C23U U28A] | 0.02
28 | GGCAGAGCUCGACACAGCGUGCCAAAGUGGCUGUGGCUAGACUGCG [A11G G22C C46G] | 0.01
29 | GGCAGAGCUCGACACAGCGUGGCAAAGUCCCUGUGGCUAGACUGCC [A11G G29C G30C] | 0.02
30 | GGCAGAGCUCGACACAGUGUGGCAAAGUGGCUGUGGCGAGAAAGCC [A11G C18U U38G C42A U43A] | 0
31 | GGCAGAGCUCGACACAGCCUGGCAAAGUGGCUGAGUCUAGACGGCG [A11G G19C U34A G36U U43G C46G] | 0
32 | GGCAGAGCUCGACACAGCGUUGCAAAGUGGCUGUGACUAGACCGCG [A11G G21U G36A U43C C46G] | 0.05
33 | GGCAGAGCUCGACAUAGCGUGGCAAAGUGGCUUUGGCUAGACUGCC [A11G C15U G33U] | 0.08
34 | GGCAGAGCUCGACACAACGUGGCAAACUGGCUGUGGCUAGACUGCC [A11G G17A G27C] | 0.11
35 | GGCAGAGCUCGACACAGCGUGCGAAAGUGGCUGUAGCGACACGGCC [A11G G22C C23G G35A U38G G40C U43G] | 0
36 | GGCAGAGCUCGACACAGCGUGCCAAAUUGACUGAGGCUAGACUGCC [A11G G22C G27U G30A U34A] | 0.04
37 | GGCAGAGCUCGACACAUCGUGGCAAAGUGUCUGUGGCUUGACUGCC [A11G G17U G30U A39U] | 0.01
38 | GGCAGAGCUCGACACAGUGUGGCAGAGUGGCUGUGGCUAGACUGUC [A11G C18U A25G C45U] | 0

Row | Variant | self-cleavage
39 | GGCAGAGCUCGACAUAGCGUGGCAAAGUGGCUGUUGCUAGACUGUC [A11G C15U G35U C45U] | 0.02
40 | GGCAGAGCUCGACACAGCGUAGCAAAGUGGCUGUGGCUAGACUGAC [A11G G21A C45A] | 0.01
41 | GGCAGAGCUCGACACAGCGUGACAAAGUAGCGGUGGCUAGACUGCC [A11G G22A G29A U32G] | 0.02
42 | GGCAGAGCUCGACACAGCGUGUCAAAGUGUCUGUGGCUAGACUGCC [A11G G22U G30U] | 0.02
43 | GGCAGAGCUCGACACAGCGUGACAAAGUGGCUCUGGCUAGACUGCC [A11G G22A G33C] | 0.02
44 | GGCAGAGCUCGAAACAGCGUGGCAAAGUGGCGGUAGCUAGACUGCC [A11G C13A U32G G35A] | 0.04
45 | GGCAGAGCUCGACACAGCGUGGCAAAGUCUCUAUCGCUAGACUACC [A11G G29C G30U G33A G35C G44A] | 0.01
46 | GGCAGAGCUCGAAACAGCGUGGCAAAGUGGCUUUGGCUAGACUGCG [A11G C13A G33U C46G] | 0.02
47 | GGCAGAGCUCGACACAGCGUGGGAAAGUGGAUGUGGCUAGACUGCC [A11G C23G C31A] | 0.01
48 | GGCAGAGCUCGACACAGUUUGGCAAAGUGGCUGUGGCUAGACUGCC [A11G C18U G19U] | 0.04
49 | GGCAGAGCUCGACACAGCGUGGCAAAGUGGGUGUGUCUAGAGUGCC [A11G C31G G36U C42G] | 0.01
50 | GGCAGAGCUCGACACAGCGUGACAAAUUGGCUGUGGAUAGACUGCC [A11G G22A G27U C37A] | 0.01
51 | GGCAGAGCUCGACACAGCGUGGGAAAGUAGCUGAGGCUAGACUGCC [A11G C23G G29A U34A] | 0.04
52 | GGCAGAGCUCGACACAGCGUGGCAAAGUAGCUGUGUCUAGACUGCC [A11G G29A G36U] | 0.02
53 | GGCAGAGCUCGACACAGCGUUGCAAACUGGCUGUGGCUACACUGCC [A11G G21U G27C G40C] | 0.01
54 | GGCAGAGCUCGACACAGCAUUGCAAAGUGGCUGUGGCUAGACUGCC [A11G G19A G21U] | 0.02
55 | GGCAGAGCUCGACACAGGGUGGCUAAGUACCUGUGGCUAGACUACC [A11G C18G A24U G29A G30C G44A] | 0.01
56 | GGCAGAGCUCGACACAGCAUGCCAAAGUGGUUGUGGCUAGACUGCC [A11G G19A G22C C31U] | 0.03
